Laboratory results as given in the supplement of paper PMC11417369.
The other results are listed elsewhere or left out.

system: PF3D7_0420300 AP2 domain 1 (GST-tagged); experiment: gcPBM binding intensity (ln(normalized median fluorescence intensity)); higher = stronger DNA binding
Procedure, shortened: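 Probes on an Agilent 4 × 180k array were primer-extended, double-stranded and 36 bp long, taken from intergenic genomic regions, with negative controls added. GST-tagged P. falciparum DNA-binding domains from E. coli, about 25 μg on average, were applied to the array for 1 h in 1× PBS containing 1% milk, 0.2 mg/ml BSA, 0.5% salmon testes DNA and 0.03% Triton X-100. Binding intensity, obtained after Alexa488 anti-GST antibody detection and a 488 nm scan, is the highest Masliner-normalised natural-log median intensity across replicate spots of either probe orientation.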

Sequence	gcPBM binding intensity (ln)
CAGACATTAATAAGTAGTACACAATAATTGACTAGG [XGTACX_site854]	9.48
TCTCATTTTCCCTAAAAAAAAAAATAAATAAAAATA [TGCATGCA_negctrl_site580]	8.63
TTTTTCCATATTGTAGCATGCAGTATATATATCATG [TGCATGCA_site530]	9.24
ATATTATTTATGTATGCATGCGGCGAAATGGGCTTG [TGCATGCA_site28]	9.36
AATGGGTTACACATATGTACATAAAATATAAAAAAT [XGTACX_site3440]	9.42
TATATACATATATATATATGTATAGATAGATACATT [CACACA_negctrl_site1511]	9.19
TAACCACAATTTTAATGTACATATATATTTATATAT [XGTACX_site8968]	9.12
TTTTGAAAAAATTTTTATAAAAGAATAAAATTATTA [XGTACX_negctrl_site570]	8.55
AATATTTTACAATACACATGCAAATAATATTCTAAA [TGCATGCA_site618]	9.17
TAAAAATGGAAACACACACACATAAATATATTTTAT [CACACA_site2513]	10.1
AAAAAAAAAAAACACACACACACACCCAAATATATA [CACACA_site150]	10.1
CATAATACATATAACACACACAATTATACATAAAAT [CACACA_site3233]	10.1
ATATATATATATATATGTACTTAAAAAATATATACA [XGTACX_site8952]	9.07
AAAAAAAAAAAAAAAAAAAAAAAAAAAATACGAAAG [GTGCAC_negctrl_site729]	9.18
CTTTTTAATTAATACACACACACACGGATATAAATA [CACACA_site7145]	10.2
TATTTTTTTTGTGTGTGTCCTCATGTAATACTGCAA [XGTACX_site1380]	9.66
TATATTAAACTTTGCACACATAATTTAACTACAAAG [CACACA_site3441]	9.28
AATCATTTATTGATGGTGCAATATACCATCTAATGA [GTGCAC_site9440]	8.9
GTTCTACAAGCCACTGCATGCTGATATAGAATAAAT [TGCATGCA_site138]	9.08

Sequence	gcPBM binding intensity (ln)
ATATGATTATTATTATATAAATTATAAAGTCTAATA [GTGCAC_negctrl_site586]	8.75
TCATATATCCTTATCACACATATAATAAATTCCCTT [CACACA_site4457]	9.25
AATATTTCTCATTTTGTGCACTGAAAAATGTAATAT	9.1
TTCTTTGCTTTTCAAACACACAAAAGTTATTATAGT [CACACA_site6390]	9.33
GGAATTGAAAAATCAGCACACACACTAATACATACA [CACACA_site9059]	9.86
AAATGGCAATAATGGACACACAAATGTTGTTATATA [CACACA_site2819]	9.43
AATAATTGTTAAAGGTGTACAATACCTACATAAGAA [XGTACX_site4215]	9.31
AAAAAGGAAATTTACACACACATATAATATACATTA [CACACA_site3296]	9.77
ATTTACCAGACCATATGTACATACATAAAACACACA [XGTACX_site3788]	9.63
CAATGCAAGGCTTAAAAAAATGGGCATATTATATAT [GTGCAC_negctrl_site304]	9.15
TTTTTTTACAACATTACACACAAATATTCTGGGTTA [CACACA_site3755]	9.44
AATATTATATTAAAATGTACAAAAATGAATTACTTT [XGTACX_site1473]	9.12
TCACATTTTGGACACGTGCACATATATTTGATACAT	9.38
AAAATTAATTATTACAAAAATGAAAAGACATATTTT [GTGCAC_negctrl_site735]	9.07
ATTTATATATAAATGTGTACATATATATATATAAAC [XGTACX_site7592]	9.27
TACCATGTTCAAATTACACACATATAATGCAATATA [CACACA_site7034]	9.43
CTGAAATTAACAAAAGTGCATAAAAATAAAAAATAT [GTGCAC_site9652]	9.41
ATTGTAAGTAAACACACACACATATATCTGTATTTA [CACACA_site4542]	9.93
ACGTGTGATTATAATTGTACTTTAATGTAAGAATGA [XGTACX_site1109]	9.27

Sequence	gcPBM binding intensity (ln)
ATATATATATATATATGTACTTATAATAATATTCAA [XGTACX_site2593]	9.13
TTATTTTATTTTTTTGTGCACATATATATTTATAAA [GTGCAC_site9615]	9.29
AATTTTATTTAATTTTTTTGGGAAATGATAAAATTT [CACACA_negctrl_site934]	8.83
AAAAAAAAAAAAAAAACACACATACATACATACATA [CACACA_site6125]	9.61
TTTTTTTTTTTTTTTGCACACACCATATTTATAGAA [CACACA_site3310]	9.46
AGAAAAGTGATATATACACACTTATATTTATTTATA [CACACA_site7350]	9.25
TTTTATAAGGTGAAAAGTACATATAACTTATTTTAC [XGTACX_site5572]	9.08
TATTGTCTATAATAAACACACAATATTAAAAATATA [CACACA_site6624]	9.24
ATCTTTCCTATTTGTAGTACAAAAAAAAAAAAAAAA [XGTACX_site5485]	8.78
TTAAATGATGTAAACACACACATATACATTATTATA [CACACA_site3162]	9.48
TACACAAGGGGAAAAATATATATATATATATATATA [TGCATGCA_negctrl_site217]	8.95
TAAAAAATTTTATATTCACACACATATATATATATA [CACACA_site8109]	9.45
TAAAAGTATATATATACACACATAAATATATATGTA [CACACA_site663]	9.35
AAAATTTAAAGCATGACACACAATTATATTATGTGC [CACACA_site3435]	9.34
TTGTGAAATAAAATTTGTACACACATATATATATAT [XGTACX_site1078]	9.4
TTTTTTTTGGAATTCACACAAATATAACATGGGTAT [CACACA_site5185]	9.04
TTCTTTTCTTTAGTAGAATGTAAAAAATATAATCTT [XGTACX_negctrl_site290]	8.93
ACTTATATATTATGTTGTCCGTCCATTCTCTTTATC [XGTACX_site3769]	9.91
